# Measurements taken from PubChem BioAssay AID651820 (National Center for Advancing Translational Sciences (NCATS), 2012).
# The whole screen tested about 340,000 compounds, of which about 12,000 (3.5%) were called active. This list was built around the results that the source calls inconclusive (neither active nor inactive); the mix of calls is not that of the screen. Calls follow the shape of the dose curve; as a rule, active = well fitted inhibition curve with a large enough effect; inconclusive = small, poorly fitted or top-dose-only effect, or another doubt; inactive = no such curve, though single readings can be large or run the other way. Potencies of inconclusive entries are left out as doubtful fits.
# Assay: qHTS Assay for Inhibitors of Hepatitis C Virus (HCV)
# Conditions: Huh7.5.1 HCVcc-Cre (HCVcc is cell-culture hepatitis C virus) infection, luciferase reporter, 44 h; activity change, negative = inhibition: at 41.8 µM (top of the series)
# Procedure, shortened: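 Reporter virus HCVcc-Cre (~0.5 moi) infects cells exposed to compound; seeding density 1,000 cells/well with 4 h settling beforehand. Luminescence, 15 sec read, taken 44 h post-infection following a 15 min RT substrate incubation.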
# % is scaled to controls: 0 for no effect and ±100 for the full control effect; potency is read from the fitted curve at half-maximal effect; tags tell the direction and shape of the fitted curve.
Structure (SMILES),Potency,"activity change, negative = inhibition"
O=P(Nc1ccccc1)(Nc1ccccc1)Oc1cccc(Cl)c1,"inconclusive [inhibitor, single point]",–
Cn1c(N)c(C(=O)COC(=O)/C=C/c2ccc(Cl)cc2)c(=O)n(C)c1=O,–,inactive: -29.6%
N#Cc1cccc(NC(=O)Cn2cnc(S(=O)(=O)N3CCc4ccccc43)c2)c1,"inconclusive [inhibitor, single point]",–
Fc1cccc(-n2cc(-c3ccccc3)c3c(=S)nc[nH]c32)c1,"inconclusive [inhibitor, single point]",–
Cc1cc(NC(=O)COc2ccccc2C)ccc1NC(=O)c1cccs1,"inconclusive [inhibitor, single point]",–
Brc1ccc2[nH]cc(C=NN3CCCCCC3)c2c1,"inconclusive [inhibitor, single point]",–
Cc1ccccc1C(=O)N1CCN(c2ccc(NC(=O)c3cccs3)cc2)CC1,active: 11.2 µM,–
CO/N=C/c1ccc(N2CCN(C(=O)c3ccc(F)cc3)CC2)c([N+](=O)[O-])c1,active: 14.1 µM,–
Cn1c(NCc2ccc(Cl)cc2)nc2ccccc21,"inconclusive [inhibitor, single point]",–
Cc1ccc(CSc2nc3ccsc3c(=O)n2Cc2ccccn2)cc1,"inconclusive [inhibitor, partial curve]",–
Cc1cc(C)nc(NN=CC2=C(N3CCOCC3)/C(=C/c3ccc(Cl)cc3)CC2)n1,"inconclusive [inhibitor, partial curve, poor fit]",–
O=Cc1cn(-c2ccccc2)nc1-c1cccnc1,–,inactive: 10.1%
COc1ccccc1-c1nc(S(=O)(=O)c2ccccc2)c(N2CCCCC2)o1,–,inactive: -9.72%
CC(=O)c1ccc(NC(=S)N2CCN(S(=O)(=O)c3ccc(F)cc3)CC2)cc1,–,inactive: 4.14%
O=C1c2ccccc2S(=O)(=O)c2cc(C(=O)N3CCN(c4ccc(Cl)cn4)CC3)ccc21,"inconclusive [inhibitor, single point]",–
Cc1c(C(=O)N2CCOCC2)c(S(=O)(=O)N2CCN(c3ccc(Cl)cc3)CC2)c(C)n1C,–,inactive: 4.23%
CCOc1ccccc1NS(=O)(=O)c1ccc(-c2cnc(C3CC3)o2)cc1,"inconclusive [inhibitor, partial curve]",–
CCCn1c(=N)n(CC(=O)c2ccc(Cl)cc2)c2ccccc21,active: 12.6 µM,–
CC(=O)Nc1ccc(Oc2ccc(S(=O)(=O)N3CCCC3)cn2)cc1,–,inactive: -8.12%
Cc1c(OCc2ccccc2)c(=O)ccn1Cc1ccc(Cl)cc1,"inconclusive [inhibitor, single point]",–
COc1ccc(CNC(=O)CN(Cc2ccccc2)S(=O)(=O)c2ccc(Cl)cc2)cc1,active: 10 µM,–
O=[N+]([O-])/C=C/c1cn(Cc2ccc(Cl)cc2)c2ccccc12,"inconclusive [inhibitor, single point]",–
C=CCn1c(=O)c2ccccc2n2c(SC(C)C(=O)Nc3nc(-c4ccccc4)cs3)nnc12 (stereo unspecified),"inconclusive [inhibitor, partial curve, poor fit]",–
Cc1ccc(-c2cc(-c3ccc(C)cc3)[n+](-c3ccc(C(=O)O)cc3)c(-c3ccc(C)cc3)c2)cc1,–,inactive: 41%
CC(=O)c1cccc(OCC(=O)Nc2cc(Cl)ccc2-n2cncn2)c1,"inconclusive [inhibitor, single point]",–
CC(C)NCCOCCSc1ccc(Cl)cc1,–,inactive: -25.8%

Structure (SMILES),Potency,"activity change, negative = inhibition"
COc1ccc(CCNC(=O)c2ccc(Cl)cc2)cc1OC,"inconclusive [inhibitor, partial curve]",–
CC(=O)Nc1ccccc1,–,inactive: -4.42%
COc1ccc(OC)c(NC(=O)CSc2nc3cccnc3n2C)c1,"inconclusive [inhibitor, partial curve]",–
O=C1OC2(c3ccccc31)c1cc(I)c(O)c(I)c1Oc1c2cc(I)c(O)c1I,–,inactive: 9.4%
COc1ccc(CCC(=O)NCC(=O)OCc2ccccc2)cc1,–,inactive: 16.8%
CCc1ccc(NC(=O)COC(=O)/C=C/c2c(C)nn(C3CCS(=O)(=O)C3)c2Cl)cc1 (stereo unspecified),–,inactive: -5.57%
Cc1ccc(S(=O)c2ccc(NC(=O)C3CC3)cc2C#N)cc1 (stereo unspecified),"inconclusive [inhibitor, single point]",–
Cc1nn(CC(=O)Nc2ccc(C(C)C)cc2)c(C)c1[N+](=O)[O-],"inconclusive [inhibitor, single point]",–
COc1ccc(-c2c(-c3cc(OC)cc(OC)c3)n(C)c3ccc(-c4ccc5cc[nH]c5c4)cc23)cc1,"inconclusive [inhibitor, partial curve]",–
Cc1[nH]c2ccccc2c1C(=O)C(C)OC(=O)C1CCC1 (stereo unspecified),–,inactive: -0.0708%
CCOC(=O)c1ccc2c(c1)nc(SCc1cn3ccsc3n1)n2CC,"inconclusive [inhibitor, full curve]",–
CCN(C(=O)c1cn(C)c(=O)c2cc(OC)c(OC)cc12)c1ccccc1C,–,inactive: -14.5%
CCCCN(C(=O)CSc1nnc(Nc2ccc(C)c(C)c2)s1)c1c(N)n(Cc2ccccc2)c(=O)[nH]c1=O,active: 10 µM,–
Cc1cccc(C(=O)Nc2nnc(S(=O)(=O)N(C)Cc3ccco3)s2)c1,–,inactive: 5.14%
Cc1oc(-c2cccc(Cl)c2)nc1CN1CCCC(C(=O)NCc2ccco2)C1 (stereo unspecified),"inconclusive [inhibitor, partial curve]",–
COc1cc(SC)ccc1C(=O)Nc1ncc(C)s1,"inconclusive [inhibitor, single point]",–
COc1ccccc1CN1CCCC(C(=O)c2ccccc2SC)C1 (stereo unspecified),–,inactive: -44.7%
CCNc1nc(NCC)n2c(SCC(=O)Nc3cccc(F)c3)nnc2n1,–,inactive: -7.28%
Cc1ccc(NC(=O)CSc2nnc(-c3ccccn3)n2C)cc1,–,inactive: -12.1%
Cc1ccc(OCCC(=O)Nc2ccc(S(=O)(=O)N3CCCC3)cc2)cc1,"inconclusive [inhibitor, single point]",–
Cc1ccc(S(=O)(=O)N2CCN(C(=O)CN3C(=O)NC(C)(c4ccc(Cl)cc4)C3=O)CC2)c(C)c1 (stereo unspecified),"inconclusive [inhibitor, single point]",–
CCc1c(C#N)c(SCCC(=O)Nc2ccc(C)cc2)nc2c1C(=O)CC(C)(C)C2,active: 8.91 µM,–
O=C(CCNC(=O)c1ccccc1Cl)NCCC1=CCCCC1,–,inactive: 1.35%
COc1ccc(N=c2scc(-c3ccc(OC)cc3)n2CCO)cc1,active: 6.31 µM,–
Cc1ccc(Nc2nc(N)nc(CN3CCc4ccccc4C3)n2)cc1,"inconclusive [inhibitor, partial curve]",–
COc1ccc2c(c1OC)C(=O)OC2C1c2c(cc3c(c2OC)OCO3)CCN1C (stereo unspecified),inactive,–

Structure (SMILES),Potency,"activity change, negative = inhibition"
Cc1ccc(S(=O)(=O)N[C@H](C(=O)OCC(=O)NC(=O)Nc2ccc3c(c2)OCCO3)C(C)C)cc1,–,inactive: 17.4%
CCOc1cc(C2Nc3cccc4cccc(c34)N2)ccc1O,"inconclusive [inhibitor, single point]",–
COC(=O)c1ccc(CSc2nc3c(cnn3-c3ccc(Cl)cc3)c(=O)[nH]2)o1,–,inactive: 4.52%
Cc1ccc(/C=N/c2sc3c(c2C(N)=O)CCCC3)o1,–,inactive: -16.6%
COc1ccc(-c2csc(NC(=O)CN3C(=O)NC4(CCCC4)C3=O)n2)cc1,"inconclusive [inhibitor, single point]",–
CCCCc1nnc(SCC(=O)Nc2nccs2)n1C,–,inactive: 4.25%
C1CCCCCC(NCCN2CCNCC2)CCCCC1,active: 1.26 µM,–
CCC(C)[C@H](NC(=O)c1cc2cc(Cl)ccc2n1C)C(=O)N1CCC(C(=O)O)CC1 (stereo partly specified),–,inactive: 1.87%
O=C1c2ccccc2C(=O)N1CCCCN(C(=O)c1ccc(Cl)s1)c1ccc(Cl)cc1,"inconclusive [inhibitor, single point]",–
N#CC1=C(N)OC2=C(C(=O)CCC2)C1CCc1ccccc1 (stereo unspecified),"inconclusive [inhibitor, single point]",–
O=C(NC(=S)NNC(=O)c1ccccc1[N+](=O)[O-])c1ccc(Br)cc1,–,inactive: 12.9%
COc1ccc(-c2nc(SCC(=O)Nc3cc(C)on3)n[nH]2)cc1,–,inactive: -9.6%
COc1ccc(/C=C/c2ccncc2)cc1,–,inactive: -0.997%
O=C(C1=C[C@H](c2ccccc2)C[C@H](OCCCCO)O1)N1CCN(Cc2ccc3c(c2)OCO3)CC1,"inconclusive [inhibitor, single point]",–
O=C(CN(C(=O)c1csnn1)c1cccc2c1CCCC2)NC1CCCC1,"inconclusive [inhibitor, single point]",–
COc1nc(Nc2ccc(O)cc2)nc(OC(C(F)(F)F)C(F)(F)F)n1,"inconclusive [inhibitor, full curve, poor fit]",–
Cc1cccc(N=Nc2c(O)[nH]c3ccc(F)cc23)c1,"inconclusive [inhibitor, single point]",–
CCOC(=O)c1c2c(c(=S)n(-c3ccccc3)c1N)CCC2,"inconclusive [inhibitor, single point]",–
O=C(/C=C/c1ccccc1)CC(O)(c1ccccc1)C(F)(F)F (stereo unspecified),"inconclusive [inhibitor, single point]",–
Cc1onc(-c2c(F)cccc2Cl)c1C(=O)N1CCc2ccccc21,–,inactive: -16%
O=C(N/N=C/c1cn(-c2ccccc2)nc1-c1ccccc1)c1ccco1,"inconclusive [inhibitor, partial curve]",–
CCOc1cc(CNc2ccc3c(c2)OCCO3)cc(Br)c1OCC,active: 2 µM,–
BrCC1C[n+]2c(SCc3ccccc3)nc3sc4c(c3c2O1)CCCC4 (stereo unspecified),–,inactive: -21%
CN1CCN(C(c2ccccn2)c2cc(Cl)c3cccnc3c2O)CC1 (stereo unspecified),"inconclusive [inhibitor, single point]",–
